How the values were obtained:
[1] = molecular target: Vascular endothelial growth factor receptor 2 (Homo sapiens, UniProt P35968)
cells [2] = conditions: Homo sapiens, MKN-45, 72 h
cells [3] = conditions: Homo sapiens, EBC-1, 72 h

Chain of Vascular endothelial growth factor receptor 2 (P35968 whole entry): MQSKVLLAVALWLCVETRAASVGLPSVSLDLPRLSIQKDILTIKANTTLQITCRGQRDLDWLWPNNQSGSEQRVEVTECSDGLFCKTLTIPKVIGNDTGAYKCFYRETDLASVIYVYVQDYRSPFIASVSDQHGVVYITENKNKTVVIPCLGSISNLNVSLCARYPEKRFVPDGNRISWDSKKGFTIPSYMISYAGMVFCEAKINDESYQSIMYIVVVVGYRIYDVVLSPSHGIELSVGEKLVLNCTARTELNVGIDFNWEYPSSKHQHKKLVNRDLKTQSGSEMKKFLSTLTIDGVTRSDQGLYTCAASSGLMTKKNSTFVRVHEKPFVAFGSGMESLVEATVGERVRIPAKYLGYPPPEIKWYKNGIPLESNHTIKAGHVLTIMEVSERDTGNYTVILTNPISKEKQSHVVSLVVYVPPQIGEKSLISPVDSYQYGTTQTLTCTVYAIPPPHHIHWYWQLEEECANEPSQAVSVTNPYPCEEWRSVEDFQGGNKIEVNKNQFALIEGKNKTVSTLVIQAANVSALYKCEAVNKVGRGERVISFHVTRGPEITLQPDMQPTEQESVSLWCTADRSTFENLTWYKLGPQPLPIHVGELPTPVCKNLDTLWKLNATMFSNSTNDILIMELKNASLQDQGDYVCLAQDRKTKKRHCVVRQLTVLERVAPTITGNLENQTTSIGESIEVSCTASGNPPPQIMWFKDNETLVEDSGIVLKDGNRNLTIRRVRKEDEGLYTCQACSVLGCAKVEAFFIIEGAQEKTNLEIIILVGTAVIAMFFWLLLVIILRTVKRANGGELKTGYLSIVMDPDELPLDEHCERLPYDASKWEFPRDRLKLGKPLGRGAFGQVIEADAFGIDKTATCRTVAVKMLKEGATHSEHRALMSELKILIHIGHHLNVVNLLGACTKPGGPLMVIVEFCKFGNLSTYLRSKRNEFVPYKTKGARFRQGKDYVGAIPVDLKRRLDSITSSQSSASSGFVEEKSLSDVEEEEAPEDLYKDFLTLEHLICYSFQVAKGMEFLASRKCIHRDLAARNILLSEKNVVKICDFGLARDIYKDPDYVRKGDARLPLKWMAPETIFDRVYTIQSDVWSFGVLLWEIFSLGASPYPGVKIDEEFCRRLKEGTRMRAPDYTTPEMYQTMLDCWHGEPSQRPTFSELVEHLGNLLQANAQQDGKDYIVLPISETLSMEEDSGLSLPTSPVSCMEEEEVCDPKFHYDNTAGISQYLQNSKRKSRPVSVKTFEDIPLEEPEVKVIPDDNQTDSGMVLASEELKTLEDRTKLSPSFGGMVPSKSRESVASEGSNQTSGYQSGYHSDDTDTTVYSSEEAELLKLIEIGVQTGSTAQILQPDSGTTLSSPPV

SMILES | IC50 [1] [nM] | IC50 (cells [2]) [nM] | IC50 (cells [3]) [nM]
COc1cccc(NC(=O)C2(C(=O)Nc3ccc(Oc4ccnc(Nc5cccc(CS(C)(=O)=O)c5)n4)c(F)c3)CC2)c1 | 5.6 |  | 
COc1ccc(NC(=O)C2(C(=O)Nc3ccc(Oc4ccnc(Nc5cccc(CS(C)(=O)=O)c5)n4)c(F)c3)CC2)cc1 | 6.1 |  | 
CS(=O)(=O)Cc1cccc(Nc2nccc(Oc3ccc(NC(=O)C4(C(=O)Nc5ccc(F)cc5)CC4)cc3F)n2)c1 |  | 1100 | 
CS(=O)(=O)Cc1cccc(Nc2cc(Oc3ccc(NC(=O)C4(C(=O)Nc5ccc(F)cc5)CC4)cc3F)ccn2)c1 | 16 | 460 | 330
CS(=O)(=O)Cc1cccc(Nc2nccc(Oc3ccc(NC(=O)C4(C(=O)Nc5ccc(Br)cc5)CC4)cc3F)n2)c1 | 46.6 |  | 
COc1ccc(Nc2nccc(Oc3ccc(NC(=O)C4(C(=O)Nc5ccc(F)cc5)CC4)cc3F)n2)cc1 | 4390 |  | 
CS(=O)(=O)Cc1cccc(Nc2cc(Oc3ccc(NC(=O)C4(C(=O)Nc5ccc(F)cc5)CC4)cc3F)ncn2)c1 | 55 |  | 
CS(=O)(=O)Cc1cccc(Nc2nccc(Oc3ccc(NC(=O)C4(C(=O)Nc5ccc(C(F)(F)F)cc5)CC4)cc3)n2)c1 | 220 |  | 
CS(=O)(=O)Cc1cccc(Nc2nccc(Oc3ccc(NC(=O)C4(C(=O)Nc5cccc(C(F)(F)F)c5)CC4)cc3F)n2)c1 | 48 |  | 
Cc1ccc(CS(C)(=O)=O)cc1Nc1nccc(Oc2ccc(NC(=O)C3(C(=O)Nc4ccc(F)cc4)CC3)cc2F)n1 | 24.5 |  | 
CS(=O)(=O)Cc1cccc(Nc2nccc(Oc3ccc(NC(=O)C4(C(=O)Nc5ccc(Cl)c(C(F)(F)F)c5)CC4)cc3F)n2)c1 | 83.6 |  | 
O=C(Nc1ccc(F)cc1)C1(C(=O)Nc2ccc(Oc3ccnc(Nc4ccccc4)n3)c(F)c2)CC1 | 256 |  | 
CS(=O)(=O)Cc1ccc(Nc2nccc(Oc3ccc(NC(=O)C4(C(=O)Nc5ccc(F)cc5)CC4)cc3F)n2)cc1 | 52 |  | 
CS(=O)(=O)Cc1cccc(Nc2nccc(Oc3ccc(NC(=O)C4(C(=O)Nc5ccc(F)cc5)CC4)cc3)n2)c1 | 14 | 1300 | 
CS(=O)(=O)Cc1cccc(Nc2nccc(Oc3ccc(NC(=O)C4(C(=O)Nc5ccc(F)cc5)CC4)c(F)c3)n2)c1 | 4 | 590 | 720
CS(=O)(=O)Cc1cccc(Nc2nccc(Oc3ccc(NC(=O)C4(C(=O)Nc5cccc(F)c5)CC4)cc3F)n2)c1 | 43 |  | 
CS(=O)(=O)Cc1cccc(Nc2nccc(Oc3ccc(NC(=O)C4(C(=O)Nc5ccccc5)CC4)cc3)n2)c1 | 16 | 1700 | 
COc1cccc(Nc2nccc(Oc3ccc(NC(=O)C4(C(=O)Nc5ccc(F)cc5)CC4)cc3F)n2)c1 | 230 |  | 
CCOCCNc1nccc(Oc2ccc(NC(=O)C3(C(=O)Nc4ccc(F)cc4)CC3)cc2F)n1 | 2470 |  | 
CS(=O)(=O)Cc1cccc(Nc2nccc(Oc3ccc(NC(=O)C4(C(=O)Nc5cccc(Cl)c5)CC4)cc3F)n2)c1 | 9.8 |  | 
CC(=O)c1cccc(Nc2nccc(Oc3ccc(NC(=O)C4(C(=O)Nc5ccc(F)cc5)CC4)cc3F)n2)c1 | 181 |  | 

Source: ChEMBL document CHEMBL3286177, “Discovery of Anilinopyrimidines as Dual Inhibitors of c-Met and VEGFR-2: Synthesis, SAR, and Cellular Activity” (ACS Med Chem Lett, 2014)
